Measurements: publication PMC5892938
Some of the results follow. Construct or isoform of the protein are uncertain.

These sequences were tested against GST-SBP-ILF3 (Homo sapiens) (UniProt Q12906) (assay: targeted RNA Bind-n-Seq). Details: RBNS binding buffer: 25 mM Tris pH 7.5, 150 mM KCl, 3 mM MgCl2, 0.1% Tween, 0.5 mg/mL BSA, 1 mM DTT; 27 nM protein, 750 pM RNA pool; temperature not stated; high values mean tight binding; sequences stand for … in GGGUAAAAGCGAGGUGAA…CGGGACAAGUAUUAUGGG.

| Sequence | binding signal (log2 fold change) |
| --- | --- |
| UUUUUUUUUUGAGACUGCGACAGUCUCCUG [tttttgagapaired] | 0.505 |
| GGUGUUGGUGUUGGCGUCUAACACCGACGC [gtspaired] | -0.74 |
| UUUUUUUUUUGAGACGGAAUCCGUCUCCGG [tttttgagapaired] | 0.232 |
| GUGUGUGGUGUUGGUCUCUAACACCGCGCG [gtspaired] | -0.83 |
| GUGUGUUGUGUUGGCACCUAACACAGCACG [gtspaired] | -0.729 |
| UUUUUUUUUUGAGAUGGGAGCUAUCUCCAG [tttttgagapaired] | 0.412 |
| UUUUUUUUUUGAGAUCGUAACGAUCUUCUG [tttttgagapaired] | 0.141 |
| UUUUUUUUUUGAGAGCGAGGCGCUCUCCUG [tttttgagapaired] | 0.463 |
| GUGUGUGGUGUUGGUUCCUAACACCAUACG [gtspaired] | -0.818 |
| UUUUUUUUUUGAGAGCGGGCCGCUCUCCGG [tttttgagapaired] | 0.726 |
| GUGUGUGGUGUUGGCGUCUAACACCGCGCA [gtspaired] | -0.739 |
| UUUUUUUUUUGAGACGGUUGCCGUCUCCUA [tttttgagapaired] | 0.387 |
| GGUGUGUGUGUUGGUACCUAACACACGCGC [gtspaired] | -0.549 |
| UUUUUUUUUUGAGAACGAGUCGUUCUUCUA [tttttgagapaired] | -0.0101 |
| GGUUGUGGUGUUGGCAUCUAACACCGCGAC [gtspaired] | -1.04 |
| UUUUUUUUUUGAGAACGUGUCGUUCUCCAG [tttttgagapaired] | 0.412 |
| UUUUUUUUUUGAGACCGCAACGGUCUCCUG [tttttgagapaired] | 0.275 |
| GGUUGUGGUGUUGGAACCUAACACCGCAGC [gtspaired] | -0.344 |
| UUUUUUUUUUGAGAGCGAGUCGUUCUUCUA [tttttgagapaired] | 0.117 |
| GUGUGUGGUGUUGGUACCUAACACCAUACA [gtspaired] | -0.434 |
| UUUUUUUUUUGAGAGUGUAACAUUCUCCAG [tttttgagapaired] | -0.0543 |
| GUGUGGUGUGUUGGAACCUAACACAUCGCA [gtspaired] | -0.515 |

| Sequence | binding signal (log2 fold change) |
| --- | --- |
| UUUUUUUUUUGAGACCGCGGCGGUCUCCUG [tttttgagapaired] | 0.867 |
| GUGUGUUGUGUUGGAGUCUAACACAGCACA [gtspaired] | -0.579 |
| UUUUUUUUUUGAGAUGGGCACCAUCUCCUG [tttttgagapaired] | 0.601 |
| GUGUGGUGUGUUGGACUCUAACACAUCACG [gtspaired] | -0.424 |
| UUUUUUUUUUGAGACUGUUGCAGUUUCCAG [tttttgagapaired] | 0.507 |
| GUGGUGUGUGUUGGCUCCUAACACACACUA [gtspaired] | -0.425 |
| GGUGGUGGUGUUGGCUCCUAACACCGCUAC [gtspaired] | -0.4 |
| UUUUUUUUUUGAGAUGGAGACCAUUUCCAG [tttttgagapaired] | 0.478 |
| GUGGUGUGUGUUGGUCUCUAACACACAUCG [gtspaired] | -0.838 |
| UUUUUUUUUUGAGAGCGAUACGUUCUCCUA [tttttgagapaired] | 0.297 |
| UUUUUUUUUUGAGAUGGGAACCAUUUCCGG [tttttgagapaired] | 0.297 |
| UUUUUUUUUUGAGAGGGGGGCCCUCUCCGG [tttttgagapaired] | 0.82 |
| UUUUUUUUUUGAGACGGCGACCGUCUCCAG [tttttgagapaired] | 0.386 |
| UUUUUUUUUUGAGAGGGGCGCCCUCUCCAG [tttttgagapaired] | 0.774 |
| UUUUUUUUUUGAGAACGAAACGUUCUUCUA [tttttgagapaired] | -0.308 |
| UUUUUUUUUUGAGACCGAUUCGGUUUCCUA [tttttgagapaired] | 0.17 |
| UUUUUUUUUUGAGAGGGGGACCCUCUUCUA [tttttgagapaired] | 0.0316 |
| GUGUGGUGUGUUGGCGCCUAACACACUACA [gtspaired] | -0.0887 |
| UUUUUUUUUUGAGACCGAGGCGGUCUCCAG [tttttgagapaired] | 0.356 |
| UUUUUUUUUUGAGACGGUUUCUGUCUUCUA [tttttgagapaired] | 0.241 |
| GUUGUGUGUGUUGGUGCCUAACACACGCAG [gtspaired] | -0.6 |
| UUUUUUUUUUGAGAUGGUAGCCAUCUCCUG [tttttgagapaired] | 0.533 |

| Sequence | binding signal (log2 fold change) |
| --- | --- |
| UUUUUUUUUUGAGAUGGAACCCAUCUCCUA [tttttgagapaired] | 0.241 |
| UUUUUUUUUUGAGAGGGGGUCCUUCUCCGG [tttttgagapaired] | 0.868 |
| UUUUUUUUUUGAGAGUGAGGCACUCUUCUA [tttttgagapaired] | 0.0598 |
| GUGGUGUGUGUUGGUACCUAACACACAUCA [gtspaired] | -0.135 |
| UUUUUUUUUUGAGAACGAUACGUUCUCCGG [tttttgagapaired] | 0.0447 |
| GUGGUUGGUGUUGGAGUCUAACACCGACCG [gtspaired] | -0.467 |
| GUGGUGUGUGUUGGCUUCUAACACACAUCA [gtspaired] | -0.366 |
| UUUUUUUUUUGAGAGCGUCACGCUCUCCAG [tttttgagapaired] | 0.787 |
| UUUUUUUUUUGAGACUGUUUCAGUCUCCUG [tttttgagapaired] | 0.192 |
| UUUUUUUUUUGAGAGGGCGUCCCUCUCCGG [tttttgagapaired] | 0.871 |
| GUGUGGUGUGUUGGUCUCUAACACAUCGCG [gtspaired] | -0.786 |
| UUUUUUUUUUGAGAUGGAGUCCAUCUUCUA [tttttgagapaired] | 0.208 |
| GUGUGGUGUGUUGGAAUCUAACACAUCACA [gtspaired] | -0.995 |
| GGUUGGUGUGUUGGCUCCUAACACAUCAGC [gtspaired] | -0.927 |
| GUGUGGUGUGUUGGCCCCUAACACACUACG [gtspaired] | -0.144 |
| UUUUUUUUUUGAGAUCGAUACGAUCUUCUA [tttttgagapaired] | -0.0587 |
| GGUGUUGGUGUUGGCAUCUAACACCGACGC [gtspaired] | -0.422 |
| GGUUGGUGUGUUGGCCCCUAACACAUCGAC [gtspaired] | 0.0785 |
| GUGGUUGGUGUUGGCACCUAACACCGACUA [gtspaired] | -0.558 |
| UUUUUUUUUUGAGACUGGUACAGUUUCCAG [tttttgagapaired] | 0.701 |
| UUUUUUUUUUGAGACCGGGGCGGUCUCCAG [tttttgagapaired] | 0.344 |
| GUUGUGUGUGUUGGACUCUAACACACGCAA [gtspaired] | -0.557 |
